Experimental findings from PubChem BioAssay AID1645887 (National Center for Advancing Translational Sciences (NCATS), 2021) are described below.

Each structure is given as a SMILES string. Several values for one entry are separate records, joined by “and”; a condition that tells them apart may be missing. Equal values may be shown once. Hit rate of the full screen: of about 16,000 compounds, about 40 (0.2%) were called active. Roughly 1% stayed inconclusive and do not appear here. Calls come from the whole dose curve; as a rule, active = well fitted activation curve with a large enough effect; inconclusive = small, poorly fitted or top-dose-only effect, or another doubt; inactive = no such curve, though single readings can be large or run the other way. This is one part of the list. Non-standard residues stand in square brackets, D forms with d. Residues, ends and D or L forms follow the SMILES beside them. pGlu = O=C1CC[C@@H](C(=O)O)N1; Thz = O=C(O)[C@@H]1CSCN1
% is set by controls: 0 for no effect and ±100 for the full control effect.

Sequence of UniProt Q8WZA2 (Q8WZA2 whole entry, looked up): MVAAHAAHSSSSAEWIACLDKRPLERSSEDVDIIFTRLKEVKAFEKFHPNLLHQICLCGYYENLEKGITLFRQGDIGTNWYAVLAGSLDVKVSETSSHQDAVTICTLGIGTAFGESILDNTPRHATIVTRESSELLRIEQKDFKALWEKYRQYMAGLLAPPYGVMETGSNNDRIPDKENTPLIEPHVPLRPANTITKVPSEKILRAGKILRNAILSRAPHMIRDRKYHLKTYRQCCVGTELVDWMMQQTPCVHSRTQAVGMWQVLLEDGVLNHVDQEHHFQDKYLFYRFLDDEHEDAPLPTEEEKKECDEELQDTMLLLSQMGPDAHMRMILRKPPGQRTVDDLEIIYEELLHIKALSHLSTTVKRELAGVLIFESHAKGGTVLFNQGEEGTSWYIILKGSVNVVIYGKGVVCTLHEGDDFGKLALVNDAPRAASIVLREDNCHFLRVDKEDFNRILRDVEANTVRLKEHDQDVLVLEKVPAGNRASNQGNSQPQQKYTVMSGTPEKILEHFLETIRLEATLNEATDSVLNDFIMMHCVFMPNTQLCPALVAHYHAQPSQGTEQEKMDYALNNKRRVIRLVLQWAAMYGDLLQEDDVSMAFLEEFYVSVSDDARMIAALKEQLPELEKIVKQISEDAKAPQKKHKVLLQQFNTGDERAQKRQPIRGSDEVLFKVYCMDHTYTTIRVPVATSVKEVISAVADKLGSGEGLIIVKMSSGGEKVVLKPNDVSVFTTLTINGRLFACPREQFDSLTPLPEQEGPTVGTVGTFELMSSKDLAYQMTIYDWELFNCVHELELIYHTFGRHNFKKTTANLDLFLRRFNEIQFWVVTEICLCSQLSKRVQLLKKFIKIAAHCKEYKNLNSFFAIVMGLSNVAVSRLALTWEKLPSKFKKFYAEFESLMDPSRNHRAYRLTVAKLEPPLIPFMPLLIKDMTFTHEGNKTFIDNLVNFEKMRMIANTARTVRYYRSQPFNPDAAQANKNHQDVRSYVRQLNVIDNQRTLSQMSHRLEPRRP

The assay has as its target Rap guanine nucleotide exchange factor 4 (Homo sapiens) (UniProt Q8WZA2). In words: Validation qHTS for agonist of cAMP-regulated guanine nucleotide exchange factor 4 (EPAC2).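 Note: exchange makes BODIPY-GDP fluorescence drop when released from Rap1B; series mostly up to about 150 µM.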 Conditions: EPAC2 Rap1B BODIPY-GDP exchange, fluorescence; activation: active compounds read high. The procedure, abridged:
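Signal normalized against 6.5 mM cAMP as agonist control. Mix of EPAC2 (100 nM), RAP1B-BODIPY-GDP (250 nM) and GDP (50 uM) was read kinetically at 480/540 nm, every 5 min over 30 min, after 5 min room-temperature incubation with compound.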
In general terms: In qHTS, concentration-response curves come from the screen itself.
As for `COc1ccc(-n2c(=O)c(-c3ccccc3)nc3cncnc32)cc1`, the activation is inactive: -4.71%.

Turning to `Cc1cccc2c(Nc3ccc4c(c3)OCO4)nc(CN3CCC(N4CCCCC4)CC3)nc12`, the activation was inactive: -5.23%.

For `Cc1ccnc2ncccc12`, the activation is inactive: -19%. Then `COc1ccccc1N1CCN(CCCNc2c(C)c(=O)n(C)c(=O)n2C)CC1`, with inactive: -10.7% and inactive: -63.3%; and `O=C1CC[C@@H](C(=O)N2CSC[C@H]2C(=O)O)N1` ([pGlu]-[Thz]-OH), with inactive: 5.28%; and `Oc1c(Cl)cc(Cl)c2cccnc12`, with inactive: -11.9%.

Take `c1ccc(-c2ccc(C(c3ccccc3)n3ccnc3)cc2)cc1` (centres undefined): the activation was inactive: -6.7%. Then `COc1cc2ncnc(Nc3cccc(Br)c3)c2cc1OC`, with inactive: -2.32%; and `CN(C)CCC(c1ccc(Br)cc1)c1ccccn1` (centres undefined), with inactive: -28.9% and inactive: -5.6%; and `CCCCNC(=O)[C@@H]1CC=C[C@@H]2CCN(Cc3ccc(OC)c(OC)c3)C(=O)[C@@H]21`, with inactive: -20.9%. With `Clc1ccc(-n2cccc2CN2CCOc3ccc(CN4CCOCC4)cc3C2)nc1`, the activation was inactive: -40.4%. As for `COc1cc(Nc2c(C#N)cnc3cc(OCCCN4CCN(C)CC4)c(OC)cc23)c(Cl)cc1Cl`, the activation was inactive: -0.507%. The figure for `COCCNC(=O)c1cn(C2CCN(C3CCCC3)CC2)nn1` is inactive: 2.88%; for `C[C@@]12CC(=O)C3=C(CCCC3=O)N1CCc1ccccc12` it is inactive: -12.1%. The figure for `COc1ccc(CNc2ncncc2-c2ccccc2CN(C)C)c(OC)c1` is inactive: -4.45%. The figure for `Cc1oc(-c2ccccc2NC(=O)C2CCC2)nc1CNC(=O)c1c(F)ccc(F)c1F` is inactive: -10.3%; for `COc1cc([C@@H]2c3cc4c(cc3[C@@H](O[C@@H]3O[C@H]5CO[C@@H](C)O[C@@H]5[C@@H](O)[C@H]3O)[C@@H]3COC(=O)[C@@H]23)OCO4)cc(OC)c1O` it is inactive: -12.7%. With `CN(C)c1ccc(-c2nccc(NCc3cccs3)n2)cc1`, the activation was inactive: 8.34%. On to `COc1cc(CN2c3ccc(Br)cc3C(=O)CS2(=O)=O)cc(OC)c1`, for which the activation is inactive: -12.8%. Then `O=[N+]([O-])c1ccc(CSc2ncnc3c2ncn3C2OC(CO)C(O)C2O)cc1` (centres undefined), with inactive: 0.807%; and `COc1cccc(Cn2c(=O)c(-c3ccc(Cl)cc3)nc3cncnc32)c1`, with inactive: -18.8%; and `N#Cc1ccc2c(c1)N(CCCN1CCC(O)CC1)c1ccccc1S2`, with inactive: 6.62%. Then `Cn1c(=O)c(CCc2ccccc2)nc2cnc(Nc3ccccc3)nc21`, with inactive: -4.9%. Then `CCC1(c2ccccc2)C(=O)NCNC1=O`, with inactive: -11.8% [middle of 4 runs].
